The values that follow come from the supplement of paper PMC4967469.

Broadly, the IC50 is the concentration at which inhibition is half-maximal.

Experiment in all cases: Viability of human cancer cell lines after 72 h of drug (GDSC screen)
Compound in one assay: COc1cc(O)c2c(c1)/C=C/C[C@H](O)[C@H](O)C(=O)/C=C\C[C@H](C)OC2=O [(5Z)-7-Oxozeaenol]
The note with it: top dose 10 µM; top dose inferred. Here is the method: (§1)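 Human cancer cell lines in 384-well plates, medium with 10% serum, drug for 72 h over a 256-fold dose range (nine 2-fold or five 4-fold steps up to the top dose). Adherent lines were fixed and stained with the nucleic acid dye Syto60, suspension lines read with resazurin; signal relative to control wells, capped at 0 and 100%. One two-parameter sigmoid per drug and line, fitted in a mixed model over all curves with the slope shared within a line.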

Compound in a further assay: Cc1ccc(F)c(NC(=O)Nc2ccc(-c3cccc4[nH]nc(N)c34)cc2)c1 [ABT-869]
Conditions: top dose 1.024 µM; top dose inferred. As to the method: as §1

Compound in another assay: C/C=C(/C)C(=O)O[C@H]1C(C)=C2[C@H]([C@@H]1OC(=O)CCCCCCC)[C@@](C)(OC(C)=O)C[C@H](OC(=O)CCC)[C@@]1(O)[C@H]2OC(=O)[C@@]1(C)O [Thapsigargin]
Conditions: top dose 0.512 µM; top dose inferred. Here is the method:
as §1

Compound in the next assay: COc1cc2ncnc(-n3nc(-c4ccccn4)nc3N)c2cc1OC [CP466722]
Conditions: top dose 16 µM; top dose inferred. Here is the method: as §1

Compound in the next assay: Cc1cnc(-c2cnc(NCCNc3ccc(C#N)cn3)nc2-c2ccc(Cl)cc2Cl)[nH]1 [CHIR-99021]
Here is the method:
as §1

Compound in a further assay: C=CC(=O)Nc1cc(-n2c(=O)ccc3cnc4ccc(-c5cn[nH]c5)cc4c32)ccc1C [QL-X-138]
Conditions: top dose 10.24 µM; top dose inferred. Here is the method: as §1

Compound in the next assay: CCn1c(-c2nonc2N)nc2cnc(Oc3cccc(NC(=O)c4ccc(OCCN5CCOCC5)cc4)c3)cc21 [GSK269962A]
Conditions: top dose inferred. Here is the method:
as §1

Compound in another assay: COc1cc(N2CCC(O)CC2)ccc1Nc1cc(Nc2ccccc2S(=O)(=O)C(C)C)c2cc[nH]c2n1 [MPS-1-IN-1]
The note with it: top dose 20 µM; top dose inferred. Here is the method:
as §1

Compound in another assay: Cc1ccc(-c2c(C(=O)CCl)n(CCCO)c3ncnc(N)c23)cc1 [CMK]
Conditions: top dose 4 µM; top dose inferred. Here is the method:
as §1

Compound in the next assay: COc1nc(C)cnc1NS(=O)(=O)c1cccnc1-c1ccc(-c2nnco2)cc1 [Zibotentan]
Conditions: top dose 20 µM; top dose inferred. As to the method:
as §1

Where [1] appears, read: top dose 2.56 µM, screen: GDSC drug entry 154.
Setting [2] is: top dose 10 µM, screen: GDSC drug entry 1241, top dose inferred.
The mark [3] stands for this setting: top dose 2.5 µM, screen: GDSC drug entry 127.
Where [4] appears, read: top dose 5 µM, screen: GDSC drug entry 1192.

Lines with a small IC50 respond at low doses; where the fit passes the top or lowest dose, that dose stands as a limit. AUC is the area under the same curve over the 256-fold range up to the top dose, as a fraction; it is 1 without any effect and falls as sensitivity rises. Where the top dose is marked as inferred, it is not printed in the source and was worked back from the curve model. For some of these results: Where an entry number is given, a second screen of the drug exists; the two often differ.

With “HEL (acute myeloid leukaemia, semi-adherent)”, the AUC is 0.738 with (5Z)-7-Oxozeaenol; 0.991 with ABT-869; 0.562 with Thapsigargin; 0.646 with CP466722; 0.969 with CHIR-99021 (setting [1]); 0.852 with CHIR-99021 (setting [2]). Besides, the AUC was determined as 0.695 in the assay with QL-X-138; 0.936 with GSK269962A (setting [3]); 0.96 with GSK269962A (setting [4]); 0.868 with MPS-1-IN-1; 0.943 with CMK; 0.981 with Zibotentan. For the same cell line, the IC50 was 2580 nM in the assay with (5Z)-7-Oxozeaenol; over 1020 nM in the assay with ABT-869; 45.8 nM with Thapsigargin; 2340 nM with CP466722; over 2560 nM in the assay with CHIR-99021 (setting [1]); 5800 nM with CHIR-99021 (setting [2]). Moreover, the IC50 with QL-X-138 is 2020 nM; with GSK269962A (setting [3]) it was over 2500 nM; with GSK269962A (setting [4]), over 5000 nM; in the assay with MPS-1-IN-1, 13300 nM; with CMK, over 4000 nM; with Zibotentan it was over 20000 nM.
As to Hs-445 (Hodgkin lymphoma, suspension), the AUC turned out to be 0.62 with (5Z)-7-Oxozeaenol; 0.982 with ABT-869; 0.989 with Thapsigargin; 0.685 in the assay with CP466722; 0.989 with CHIR-99021 (setting [1]); 0.988 with CHIR-99021 (setting [2]). Moreover, the AUC with QL-X-138 was 0.653; in the assay with GSK269962A (setting [3]), 0.975; with GSK269962A (setting [4]), 0.963; with MPS-1-IN-1, 0.88; with CMK it was 0.96; with Zibotentan, 0.988. For the same cell line, the IC50 with (5Z)-7-Oxozeaenol is 1300 nM; with ABT-869, over 1020 nM; in the assay with Thapsigargin, over 512 nM; with CP466722, 3150 nM; with CHIR-99021 (setting [1]), over 2560 nM; with CHIR-99021 (setting [2]) it was over 10000 nM. Moreover, the IC50 with QL-X-138 is 1640 nM; with GSK269962A (setting [3]) it was over 2500 nM; in the assay with GSK269962A (setting [4]), over 5000 nM; in the assay with MPS-1-IN-1 it was 18100 nM; with CMK, over 4000 nM; in the assay with Zibotentan it was over 20000 nM.
Take IST-MES1 (mesothelioma, adherent): the AUC with (5Z)-7-Oxozeaenol is 0.743; with ABT-869, 0.977; in the assay with Thapsigargin, 0.635; in the assay with CP466722, 0.9; with CHIR-99021 (setting [1]), 0.934; in the assay with CHIR-99021 (setting [2]) it was 0.864. Moreover, the AUC was found to be 0.936 in the assay with QL-X-138; 0.981 in the assay with GSK269962A (setting [3]); 0.924 with GSK269962A (setting [4]); 0.943 with MPS-1-IN-1; 0.862 with CMK; 0.985 in the assay with Zibotentan. The IC50 was 3130 nM in the assay with (5Z)-7-Oxozeaenol; over 1020 nM with ABT-869; 76 nM with Thapsigargin; over 16000 nM with CP466722; over 2560 nM with CHIR-99021 (setting [1]); 8840 nM with CHIR-99021 (setting [2]). In addition, the concentration for half-maximal inhibition (IC50) is over 10200 nM with QL-X-138; over 2500 nM in the assay with GSK269962A (setting [3]); over 5000 nM with GSK269962A (setting [4]); over 20000 nM in the assay with MPS-1-IN-1; 3460 nM with CMK; over 20000 nM in the assay with Zibotentan.
On to “K-562 (chronic myeloid leukaemia, suspension)”, for which the AUC with (5Z)-7-Oxozeaenol was determined as 0.678; with Thapsigargin it was 0.777; in the assay with CP466722 it was 0.73; with QL-X-138 it was 0.625; in the assay with GSK269962A (setting [3]), 0.954; with GSK269962A (setting [4]) it was 0.909. In addition, the figures for the AUC in the assay with MPS-1-IN-1 and with CMK were 0.917 and 0.844, respectively. Also, the IC50 with (5Z)-7-Oxozeaenol is 1930 nM; in the assay with Thapsigargin it was 198 nM; in the assay with CP466722, 4400 nM; with QL-X-138, 1400 nM; with GSK269962A (setting [3]) it was over 2500 nM; with GSK269962A (setting [4]) it was over 5000 nM. For the same cell line, the 50% inhibitory concentration (IC50) with MPS-1-IN-1 was over 20000 nM; with CMK, 2730 nM.
KALS-1 (glioma, adherent): the AUC in the assay with (5Z)-7-Oxozeaenol stood at 0.693; in the assay with ABT-869, 0.969; in the assay with Thapsigargin, 0.264; in the assay with CP466722, 0.977; with CHIR-99021 (setting [1]), 0.96; in the assay with CHIR-99021 (setting [2]) it was 0.888. In addition, the AUC with QL-X-138 was 0.673; with GSK269962A (setting [3]), 0.936; with GSK269962A (setting [4]), 0.913; with MPS-1-IN-1, 0.955; with CMK, 0.822; with Zibotentan it was 0.973. Further, the IC50 with (5Z)-7-Oxozeaenol was 2680 nM; with ABT-869 it was over 1020 nM; in the assay with Thapsigargin, 5.18 nM; with CP466722, over 16000 nM; with CHIR-99021 (setting [1]), over 2560 nM; with CHIR-99021 (setting [2]), over 10000 nM. In addition, the IC50 in the assay with QL-X-138 is 2340 nM; in the assay with GSK269962A (setting [3]), over 2500 nM; with GSK269962A (setting [4]), over 5000 nM; with MPS-1-IN-1, over 20000 nM; with CMK it was 3560 nM; with Zibotentan, over 20000 nM.
